Data as given in PubChem BioAssay AID1345082 (National Center for Advancing Translational Sciences (NCATS), 2018).
Screen size: about 94,000 compounds; about 4,000 (4.3%) were called active. The shares of active, inactive and inconclusive entries below differ from those in the screen. Calls come from the whole dose curve; as a rule, active = well fitted inhibition curve with a large enough effect; inconclusive = small, poorly fitted or top-dose-only effect; inactive = no such curve, though single readings can be large or run the other way. Potencies beside an inconclusive call are fits to weak or partial responses and may not hold up.

assay: Cytotoxic Profiling in NIH 3T3 Cell Line of Diverse Libraries Using Quantitative High-Throughput Screening; conditions: NIH 3T3 viability, CellTiter-Glo ATP luminescence, 48-72 h; series mostly up to 96.7 µM; note: nearly all actives have a fitted effect of over 55% in size
In short: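 NIH 3T3 cells at 400 cells/well received 23 nL of compound by pintool and were incubated 48 or 72 h at 37 °C. Viability was read as ATP-coupled CellTiter-Glo luminescence.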
Potency is the fitted concentration of half-maximal effect; tags give direction and shape of the fitted curve.

Row | Compound | Potency
1 | Cc1cccc(-c2nocc2CCC(=O)N2CCN(c3cccc(C)c3)CC2)c1 | inconclusive: 44.7 µM [inhibitor, partial curve]
2 | COC(=O)CNC(=O)c1nn(C)c2nc(-c3ccccc3OC)ccc12 | inactive
3 | O=C(N[C@@H]1CN(Cc2ccc(F)cc2)C[C@H]1CO)c1ccccc1 | inconclusive: 44.7 µM [inhibitor, partial curve, poor fit]
4 | CC(C)(C)c1ccc(C(=O)Nc2ccc(C(O)[C@H]3COCC(=O)N3Cc3ccccn3)cc2)cc1 (stereo partly drawn) | inconclusive: 44.7 µM [inhibitor, partial curve, poor fit]
5 | NC(=O)Cn1ccc2cc(OCC3CCN(C(=O)CC4CC4)CC3)cnc21 | inconclusive: 22.4 µM [inhibitor, full curve, poor fit]
6 | Cc1noc2ccc(-c3ccc(CO)cc3)nc12 | inconclusive: 100 µM [inhibitor, partial curve]
7 | c1nc(-c2cc(NC3CCNCC3)nc3[nH]ccc23)c2sccc2n1 | inconclusive: 50.1 µM [inhibitor, partial curve, poor fit]
8 | COc1ccc(S(=O)(=O)N2CCCCC2c2nc(-c3cnccn3)n[nH]2)cc1 (stereo not drawn) | inactive
9 | CCOC(=O)c1ccc(NC(=O)N2Cc3[nH]cnc3C[C@H]2c2nc(-c3ccc(C)cc3)no2)cc1 | inconclusive: 50.1 µM [inhibitor, partial curve, poor fit]
10 | CC1(C(=O)NCc2cccnc2)CCCc2cnc(Nc3ccccc3F)nc21 (stereo not drawn) | inconclusive: 89.1 µM [inhibitor, partial curve, poor fit]
11 | c1ccc(-c2cn3c(n2)CO[C@@H](CNCc2ccc4ccccc4n2)C3)cc1 | inconclusive: 89.1 µM [inhibitor, partial curve, poor fit]
12 | O=C(O)C[C@@H]1CCN(Cc2ccccc2)C[C@@H]1CCN1C[C@@H]2C[C@H](C1)c1cccc(=O)n1C2 | inactive
13 | O=C1CC(c2noc(Cc3ccc(Cl)cc3)n2)CN1C1CCCCC1 (stereo not drawn) | inconclusive: 70.8 µM [inhibitor, single point]
14 | CCCN1CCCCC12Cc1ccccc1CN(C(=O)CC)C2 (stereo not drawn) | inconclusive: 89.1 µM [inhibitor, single point]
15 | COc1ccc(C(C)NC(=O)C2CCN(c3cc(C(F)(F)F)ncn3)CC2)cc1 (stereo not drawn) | inconclusive: 31.6 µM [inhibitor, partial curve, poor fit]
16 | CSc1ccc(-c2cccc(C(=O)NCC(=O)NCC(F)F)c2)cc1 | inactive
17 | Cc1noc(-c2nnn3c2COC(c2ccc(F)cc2)C3)n1 (stereo not drawn) | inactive
18 | Cc1cnc(-c2cccnc2)n1CC1CCN(C(=O)C2CCC2)C1 (stereo not drawn) | inactive
19 | Cc1ccsc1C(=O)N1CCC(CCC(=O)N2CCC(Cc3ccccc3)CC2)CC1 | inconclusive: 35.5 µM [inhibitor, partial curve]
20 | O=C(Cc1ccc(F)cc1)NCCNC(=O)c1cccc(-c2ccsc2)c1 | inactive
21 | Cc1nnnn1-c1cccc(-c2nc(Cc3cccs3)nn2CCO)c1 | inactive
22 | COc1cccc(-c2ncc3c(n2)OCCN(Cc2ccc(F)cc2F)C3=O)c1 | inconclusive: 10 µM [inhibitor, full curve, poor fit]

Row | Compound | Potency
23 | O=C(NCc1ccc(F)cc1)N1CCCC(Cn2c(C3CC3)nc3cccnc32)C1 (stereo not drawn) | inconclusive: 50.1 µM [inhibitor, partial curve, poor fit]
24 | Cc1cccc(C(=O)N2CC[C@@](C)(O)[C@@H](Cc3ccccc3)C2)c1C | inactive
25 | Cn1ncc2c(C(=O)N3CCC(C#N)CC3)cc(-c3cccc(F)c3)nc21 | inconclusive: 50.1 µM [inhibitor, partial curve, poor fit]
26 | COc1cc(C(=O)N2CCN(c3cc(-c4ccc(Cl)cc4)[nH]n3)CC2)cc(OC)c1OC | active: 25.1 µM
27 | CCNC(=O)N1CCC(CCOC)(NS(=O)(=O)c2cc(OC)ccc2OC)CC1 | inactive
28 | COc1ccccc1Nc1ccnc(N2CCCC(C(=O)NCC3CC3)C2)n1 (stereo not drawn) | active: 35.5 µM
29 | O=C(c1n[nH]c2ccccc12)N1CCC(Cc2nc(-c3ccccc3)n[nH]2)CC1 | inconclusive: 50.1 µM [inhibitor, partial curve, poor fit]
30 | COc1ccc(NC(=O)N2c3ccccc3CC2c2nc(C(C)C)no2)c(OC)c1 (stereo not drawn) | inconclusive: 50.1 µM [inhibitor, partial curve, poor fit]
31 | N#Cc1ccc(CN2CC(CNC(=O)c3ccccc3)C3(C2)CN(c2ccccc2)C3)cc1 (stereo not drawn) | inconclusive: 4.47 µM [inhibitor, full curve, poor fit]
32 | CCn1ncc(C(=O)N[C@@H]2CN(c3ccccn3)C[C@H]2CN(C)C)c1C | inactive
33 | CC(=O)Nc1cccc(C(=O)N2CCC(n3cc(-c4nc(-c5ccccc5)no4)nn3)C2)c1 (stereo not drawn) | inconclusive: 22.4 µM [inhibitor, full curve]
34 | Cc1cc(C)cc(NC(=O)N2CCC(F)(c3nc(-c4ccncc4)no3)CC2)c1 | inconclusive: 44.7 µM [inhibitor, partial curve, poor fit]
35 | CC#CCn1cc2c3c(cccc31)[C@H](CC(C)C)N[C@H](C(=O)NCc1ccccc1OC)C2 | active: 31.6 µM
36 | Cn1cccc1CN1CCCCCCNC(=O)[C@@H]2CCC[C@@H]21 | inactive
37 | CC(=O)NCc1nnc2n1C(C(=O)NCCN1CCOCC1)CC2 (stereo not drawn) | inactive
38 | Cc1noc(C)c1[S+](=O)([O-])N1CCN(c2nccc(Nc3ccccc3F)n2)CC1 | inactive
39 | CC1(c2ccccc2)N(Cc2ccc(O)cc2)C(=O)OC12CCN(C(=O)c1cccnc1)CC2 (stereo not drawn) | active: 31.6 µM
40 | CN(Cc1ccc2nccnc2c1)C(=O)c1cc(COc2ccc(F)cc2F)on1 | inconclusive: 35.5 µM [inhibitor, partial curve, poor fit]
41 | C=CCC1(CO)CCCN(Cc2nc(C)cc(-c3ccccc3)n2)C1 (stereo not drawn) | inactive
42 | O=C(NCc1nnc2n1C(C(=O)O)CC2)c1ccc2c(c1)OCO2 (stereo not drawn) | inactive
43 | O=C(C1CCCC1)N1CCC2(CCCN(Cc3cccc(F)c3F)C2)C1 (stereo not drawn) | inconclusive: 89.1 µM [inhibitor, single point]
